# Test results: the BET-seq Pho4 binding data (Le et al. 2018)
# Some of the results follow. These are noisy estimates, calculated here from bound and input reads.
# Target: T1, Pho4 (S. cerevisiae) (UniProt P07270)
# T1 sequence: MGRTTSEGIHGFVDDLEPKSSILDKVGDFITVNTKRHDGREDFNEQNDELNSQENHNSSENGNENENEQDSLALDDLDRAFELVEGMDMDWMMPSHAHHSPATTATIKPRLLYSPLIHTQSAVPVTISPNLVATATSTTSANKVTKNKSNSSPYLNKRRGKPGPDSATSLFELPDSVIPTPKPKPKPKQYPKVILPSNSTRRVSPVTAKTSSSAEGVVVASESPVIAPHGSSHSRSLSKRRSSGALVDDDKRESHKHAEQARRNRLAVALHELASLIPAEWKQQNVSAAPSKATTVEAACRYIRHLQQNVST
# Experiment: relative binding free energy (BET-seq); higher = weaker binding
# Conditions: reference: library average
row,Sequence,relative binding free energy
1,GAGCGCACGTGAGGAG,0.22 kcal/mol
2,CGTATCACGTGTGGTG,0.01 kcal/mol
3,GGTATCACGTGCGGGA,0.19 kcal/mol
4,ATTGGCACGTGCTGTA,-0.22 kcal/mol
5,TAAGTCACGTGCTTAT,0.1 kcal/mol
6,CGTAGCACGTGTTTTA,-0.01 kcal/mol
7,TTGGTCACGTGTACGG,0.22 kcal/mol
8,GGTTGCACGTGGAAGT,0.12 kcal/mol
9,TATGTCACGTGAGCGT,0.2 kcal/mol
10,ATCTTCACGTGAATTT,0.28 kcal/mol
11,TTGCGCACGTGGGGAA,-0.18 kcal/mol
12,TGGTACACGTGTGCGC,0.1 kcal/mol
13,TGGCTCACGTGTTGGA,0.15 kcal/mol
14,CTTGACACGTGTAGGG,-0.01 kcal/mol
15,ATCTGCACGTGGGGCG,-0.14 kcal/mol
16,AGTGCCACGTGGATGT,-0.15 kcal/mol
17,TGTTGCACGTGGATAA,0.08 kcal/mol
18,GCTGGCACGTGTGGGG,0.01 kcal/mol
19,TGTTACACGTGTATTT,0.09 kcal/mol
20,AAAGGCACGTGGAGAT,-0.04 kcal/mol
21,TGCTACACGTGTGGAA,0.35 kcal/mol
22,ACGTGCACGTGTTTGA,-0.14 kcal/mol
23,TTGAGCACGTGGGACG,-0.15 kcal/mol
24,TGTCACACGTGGTGCT,-0.01 kcal/mol
25,ATTTGCACGTGATTAG,0.04 kcal/mol

row,Sequence,relative binding free energy
1,ATGGGCACGTGAGATA,-0.07 kcal/mol
2,TTGGGCACGTGCATTG,-0.12 kcal/mol
3,GGGGTCACGTGGCTTT,0.13 kcal/mol
4,CAGTTCACGTGGCGGG,0.15 kcal/mol
5,ACGGGCACGTGACGGG,-0.18 kcal/mol
6,TTGTTCACGTGAAAGT,0.24 kcal/mol
7,GGTGGCACGTGTGTTG,-0.02 kcal/mol
8,TCTTGCACGTGGGGAA,-0.08 kcal/mol
9,ATTGTCACGTGATACT,0.13 kcal/mol
10,TGGACCACGTGTATTT,-0.01 kcal/mol
11,GGTAGCACGTGTTGTG,0.03 kcal/mol
12,TTTAGCACGTGTGATA,0.01 kcal/mol
13,CGTGTCACGTGTATGC,-0.02 kcal/mol
14,CGGTGCACGTGGTTTA,-0.09 kcal/mol
15,GTGCGCACGTGTGGGG,-0.09 kcal/mol
16,TGGAACACGTGAAGTA,0.31 kcal/mol
17,TTATGCACGTGTAGAG,0 kcal/mol
18,AGTAACACGTGACGGG,0.11 kcal/mol
19,AATATCACGTGGTTTA,0.03 kcal/mol
20,TCTATCACGTGCGGTA,0.19 kcal/mol
21,ATTGGCACGTGTTTGG,-0.02 kcal/mol
22,GGCGACACGTGGCTGT,0.05 kcal/mol
23,GTGCTCACGTGTGGGA,0.15 kcal/mol
24,GGGTCCACGTGAGTTA,0.17 kcal/mol
25,GAAGTCACGTGTTGCG,0.22 kcal/mol

row,Sequence,relative binding free energy
1,ATTGACACGTGGGCGA,-0.15 kcal/mol
2,GGTAGCACGTGAGCGA,0.31 kcal/mol
3,ATGTTCACGTGCCTGG,0.19 kcal/mol
4,GATGTCACGTGTCTTG,0.18 kcal/mol
5,GAGGGCACGTGGTCAG,-0.2 kcal/mol
6,TCAATCACGTGGGGGG,0.06 kcal/mol
7,CCGGGCACGTGGGTGG,-0.33 kcal/mol
8,CTTGGCACGTGAGGAG,0.16 kcal/mol
9,ATGGGCACGTGTATCT,-0.09 kcal/mol
10,TGTAACACGTGAAAGT,0.29 kcal/mol
11,CCGGGCACGTGTGTTA,-0.1 kcal/mol
12,GTTAGCACGTGTTAGT,-0.04 kcal/mol
13,TTTAGCACGTGGGGCG,-0.23 kcal/mol
14,TGAGACACGTGTTGGA,-0.05 kcal/mol
15,GTAGGCACGTGTGACG,-0.04 kcal/mol
16,AGATTCACGTGTGTAA,0.27 kcal/mol
17,ATGATCACGTGGGACT,0.07 kcal/mol
18,GGTATCACGTGTTGGG,0.15 kcal/mol
19,TAATGCACGTGAAGAG,0.34 kcal/mol
20,AGTGACACGTGGTCAG,-0.02 kcal/mol
21,TGTGCCACGTGGGGAC,-0.09 kcal/mol
22,TCGATCACGTGTTTTA,0.07 kcal/mol
23,CAGTGCACGTGGAGGC,0.03 kcal/mol
24,GTTAGCACGTGCGATT,0.02 kcal/mol
25,AATGCCACGTGGAGGG,-0.12 kcal/mol

row,Sequence,relative binding free energy
1,ACTTGCACGTGTGTTA,0.08 kcal/mol
2,ACAAGCACGTGGTGGT,-0.06 kcal/mol
3,CAGTACACGTGGTTGG,-0.06 kcal/mol
4,ATACGCACGTGTATTG,-0.1 kcal/mol
5,TTTGACACGTGGTTAG,-0.04 kcal/mol
6,GCAAGCACGTGGGGAG,-0.16 kcal/mol
7,TTAGGCACGTGACATT,-0.03 kcal/mol
8,GTGCGCACGTGAGAGG,0.3 kcal/mol
9,GGACTCACGTGATGTG,0.21 kcal/mol
10,AGCTGCACGTGGCTGG,-0.01 kcal/mol
11,GTTGTCACGTGAGTAT,0.27 kcal/mol
12,TGAGACACGTGAGGGA,0.26 kcal/mol
13,TATTTCACGTGTCGGG,0.34 kcal/mol
14,GTTAGCACGTGGTATT,-0.02 kcal/mol
15,TTTGGCACGTGCCGTT,-0.21 kcal/mol
16,GGGTTCACGTGTGACA,0.4 kcal/mol
17,ATTGACACGTGAAATG,0.23 kcal/mol
18,TAGGCCACGTGGTATT,-0.13 kcal/mol
19,TTACTCACGTGGTGTT,0.1 kcal/mol
20,CAGTACACGTGGGTTT,-0.11 kcal/mol
21,CAGGACACGTGGGTTG,-0.08 kcal/mol
22,ATGGCCACGTGTAGGG,-0.01 kcal/mol
23,TTCCGCACGTGGGGTT,-0.12 kcal/mol
24,TTTTACACGTGAAGGC,0.28 kcal/mol
25,TTAATCACGTGGGTTC,-0.09 kcal/mol

row,Sequence,relative binding free energy
1,ATAGGCACGTGTATCG,-0.07 kcal/mol
2,AATTGCACGTGAGTAT,0.16 kcal/mol
3,GTGGTCACGTGTGTGT,0.1 kcal/mol
4,TTAACCACGTGTAGGG,-0.11 kcal/mol
5,AGAGGCACGTGCGGTA,-0.33 kcal/mol
6,ACGGTCACGTGGAGTA,0.04 kcal/mol
7,TTAGGCACGTGGTCCT,-0.21 kcal/mol
8,CGGTTCACGTGGGATA,0.16 kcal/mol
9,GGCGGCACGTGGTAGG,-0.15 kcal/mol
10,GGTTTCACGTGGATTT,0.32 kcal/mol
11,CAGTGCACGTGGTGCG,-0.12 kcal/mol
12,GGATACACGTGGTAGA,0.2 kcal/mol
13,GTGTGCACGTGGCGAT,-0.09 kcal/mol
14,TAGAGCACGTGGGCGG,-0.21 kcal/mol
15,GTTCACACGTGGTTGT,0.07 kcal/mol
16,ATATGCACGTGAGCTG,0.05 kcal/mol
17,TGTACCACGTGGGCGG,-0.24 kcal/mol
18,TGGTGCACGTGGACTT,-0.15 kcal/mol
19,TGTTGCACGTGAGGCC,0.17 kcal/mol
20,TACGGCACGTGTGGAG,0 kcal/mol
21,GAGTACACGTGTGAGG,0.03 kcal/mol
22,AGTAACACGTGATATT,0.16 kcal/mol
23,GGTAACACGTGAGTTT,0.41 kcal/mol
24,TGTATCACGTGTGGCG,0.11 kcal/mol
25,ATTCGCACGTGTAGGC,0.09 kcal/mol

row,Sequence,relative binding free energy
1,ATTATCACGTGAGTTG,0.32 kcal/mol
2,TCTGGCACGTGGACTG,-0.04 kcal/mol
3,GACTGCACGTGGTGTA,-0.01 kcal/mol
4,GGTGTCACGTGCTTTA,0.11 kcal/mol
5,GGATTCACGTGTAATA,0.33 kcal/mol
6,AGGTACACGTGTGGAA,0.22 kcal/mol
7,GCTTTCACGTGTGTGT,0.26 kcal/mol
8,TATACCACGTGGTGGT,-0.1 kcal/mol
9,GGGTTCACGTGAGTTG,0.51 kcal/mol
10,GGGTGCACGTGTTCAA,-0.02 kcal/mol
11,TGGGGCACGTGAGTAA,0.22 kcal/mol
12,GGTTCCACGTGTGTGT,0.14 kcal/mol
13,GGGTACACGTGTTCAA,0.18 kcal/mol
14,TGGTACACGTGTTAGG,0.16 kcal/mol
15,CTGTACACGTGGATGG,0.06 kcal/mol
16,TGTGGCACGTGAACTG,0.14 kcal/mol
17,GTGGTCACGTGAGTAT,0.45 kcal/mol
18,TTCAGCACGTGGGAGG,-0.14 kcal/mol
19,GGGATCACGTGGGCGG,0.12 kcal/mol
20,TTTATCACGTGCATAT,-0.02 kcal/mol
21,GTTTGCACGTGTATGC,0.1 kcal/mol
